Here are results for eleven variants from the supplement of paper PMC12217912.

B1: TEV protease; numbered along this chain (parent)
chain: MGESLFKGPRDYNPISSSICHLTNESDGHTTSLYGIGFGPFIITNKHLFRRNNGTLVVQSLHGVFKVKDTTTLQQHLVDGRDMIIIRMPKDFPPFPQKLKFREPQREERICLVTTNFQTKSMSSMVSDTSCTFPSGDGIFWKHWIQTKDGQCGSPLVSTRDGFIVGIHSASNFTNTNNYFTSVPKNFMELLTNQEAQQWVSGWRLNADSVLWGGHKVFMVKPEEPFQPVKEATQL

The other results are listed elsewhere or left out. The full chains were built here from the parent and the listed change. Inactive controls read about 0.05.
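Also: Bxb1 expression induced with 0.2% (w/v) L-rhamnose at OD600 near 0.5, cultures sampled hourly, flipped fraction per protease–substrate barcode pair counted by paired-end Illumina sequencing.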

The variants in the assay derive from B1. Kind of assay: raw area under fraction-flipped curve 0-4 h after induction (AUC4h, not background-subtracted), DNA-recorder readout of cleavage of the substrate (dimensionless); higher = more cleavage of the substrate by the protease variant. The settings on record: temperature: 34 °C; time window: 0-4 h after rhamnose induction.
Take MGESLFKGPRDYNPISSSICHLTNESDGHTTSLYGIGFGPFIITNKHLFRRNNGTLVVQSLHGVFKVKDTTTLQQHLVDGRDMIIIRMCKDFPPFPQKLKFREPQREERICLVTTNFQTKSMSSMVSDTSCTFPSGDGIFWKHWIQTKDGQCGSPLVSTRDGFIVGIHSASNFTNTNNYFTSVPKNFMELLTNQEAQQWVSGWRLNADSVLWGGHKVFMVKPEEPFQPVKEATQL [P89C]: the “area with substrate EFLYFQS” value was 0.0771, the “area with substrate EGLYFQS” value worked out at 0.0873, the “area with substrate EPLYFQS” value was 0.104 and the “area with substrate ETLYFQS” value turned out to be 0.0818. Further, the “area with substrate EYLYFQS” value was 0.0965.
Turning to MGESLFKGPRDYNPISSSICHLTNESDGHTTSLYIIGFGPFIITNKHLFRRNNGTLVVQSLHGVFKVKDTTTLQQHLVDGRDMIIIRMPKDFPPFPQKLKFREPQREERICLVTTNFQTKSMSSMVSDTSCTFPSGDGIFWKHWIQTKDGQCGSPLVSTRDGFIVGIHSASNFTNTNNYFTSVPKNFMELLTNQEAQQWVSGWRLNADSVLWGGHKVFMVKPEEPFQPVKEATQL [G35I], the “area with substrate EFLYFQS” value came out at 0.0385 and the “area with substrate EPLYFQS” value is 0.0551.
In the case of MGESLFKGPRDYNPISSSICHLTNESDGHTTSLYGIGFGPFIITNKHLFRRNNGTLVVQSLHGVFKVKDTTTLQQHLVDGRDMIIIRMPKDFPPFPQKLKFREPQREERICLVTTNFQTKSMSSMVSDTSCTFPSGDGIFWKHWIQTKDGQCGSPLVSTRDGFIVGIHSASRFTNTNNYFTSVPKNFMELLTNQEAQQWVSGWRLNADSVLWGGHKVFMVKPEEPFQPVKEATQL [N172R], the “area with substrate EFLYFQS” value amounted to 0.0593, the “area with substrate EILYFQS” value stood at 0.068, the “area with substrate EMLYFQS” value is 0.0471 and the “area with substrate EPLYFQS” value came to 0.0516. In addition, the “area with substrate EQLYFQS” value stood at 0.0569, the “area with substrate ERLYFQS” value was determined as 0.0568, the “area with substrate ESLYFQS” value was 0.0581 and the “area with substrate ETLYFQS” value came to 0.077. Also, the “area with substrate EVLYFQS” value is 0.0612.
Turning to MGESLFKGPRDYNPISSSICHLTNESDGHTTSLYGIGFGPFIITNKHLFRRNNGTLVVQSLHGVFKVKDTTTLQQHLVDGRDMIIIRMPKDFPPFPQKLKFREPQREERICLVTTNFQTKSMSSMVSDTSCKFPSGDGIFWKHWIQTKDGQCGSPLVSTRDGFIVGIHSASNFTNTNNYFTSVPKNFMELLTNQEAQQWVSGWRLNADSVLWGGHKVFMVKPEEPFQPVKEATQL [T132K], the “area with substrate EFLYFQS” value worked out at 0.071, the “area with substrate EMLYFQS” value was found to be 0.0602 and the “area with substrate ESLYFQS” value came out at 0.0609.
For MGESLFKGPRDYNPISSSICHLTNESDGHTTSLYGIGFGPFIITNKHLFRRNNGTLVVQSLHGVFKVKDTTTLQQHLVDGRDMIIIRMPKDFPPFPQKLKFREPQREERICLVTTNFQTKSMSSMVSDTSCTFPSGDGIFWKHWIQTKDGQCGSPLVSTRDGFIVGIHSASNFTNTNNYFTSVPKNFMELLTNQEAQQWVHGWRLNADSVLWGGHKVFMVKPEEPFQPVKEATQL [S201H], the “area with substrate EELYFQS” value is 0.076, the “area with substrate ELLYFQS” value turned out to be 0.0551 and the “area with substrate EQLYFQS” value came to 0.109.
Regarding MGESLFKGPRDYNPISSSICHLTNESDGHTTSLYGIGFGPFIITNKHLFRRNNGTLVVQSLHGVFKVKDTTTLQQHLVDGRDMIIIRMPKDFPPFPQKLKFREPQREERICLVTTNFQTKSMSSMVSDTSCTFPSGDGIFWKHWIQTKDGQCGSPLVSTRDGFIVGIHSASNFTNTNNYFTSVPKNFMELLTNQEAQQWVSGWRLNADWVLWGGHKVFMVKPEEPFQPVKEATQL [S209W], the “area with substrate EELYFQS” value worked out at 0.145, the “area with substrate EPLYFQS” value came to 0.113, the “area with substrate EQLYFQS” value is 0.123 and the “area with substrate EYLYFQS” value is 0.111.
Turning to MGESLFKGPRDYNPISSSICHLTNESDGHTTSLYGIGFGPFIITNKHLFRRNNGTLVVQSLHGVFKVKDTTTLQQHLVDGRDMIIIRMPKDFPPFPQKLKFREPQREERICLVTTNFQTKSMSSMVSDTSCTFPSGDGIFWKHWIQTKDGQCGSPLVSTRDGFIVGIHSASNFTNTNNYFTSVPKNFMELLTNQEAQQWVSGWRLNADSVLAGGHKVFMVKPEEPFQPVKEATQL [W212A], the “area with substrate EELYFQS” value came out at 0.0974, the “area with substrate ELLYFQS” value stood at 0.0769, the “area with substrate EPLYFQS” value is 0.112 and the “area with substrate ESLYFQS” value came out at 0.111.
On to MGESLFKGPRDYNPISSSICHLTNESDGHTTSLYGIGFGPFIITNKHLFRRNNGTLVVQSLHGVFKVKDTTTLQQHLVDGRDMIIIRMPKDFPPFPQKLKFREPQREERICLVTTNFQTKSMSSMVSDTSCTFPSGDGIFWKHWIQTKDGQCGSPLVSTRDGFIVEIHSASNFTNTNNYFTSVPKNFMELLTNQEAQQWVSGWRLNADSVLWGGHKVFMVKPEEPFQPVKEATQL [G166E], for which the “area with substrate EFLYFQS” value was determined as 0.0538, the “area with substrate EILYFQS” value turned out to be 0.0449, the “area with substrate ELLYFQS” value came out at 0.0614 and the “area with substrate EQLYFQS” value came out at 0.04. Moreover, the “area with substrate ESLYFQS” value came out at 0.0704 and the “area with substrate EVLYFQS” value stood at 0.0427.
On to MGESLFKGPRDYNPISSSICHLTNESDGHTTSLYGIGFGPFIITNKHLFRRNNGTLVVQSLHGVFKVKDTTTLQQHLVDGRDMIIIRMPKDFPPFPQKLKFREPQREERICLVTTNFQTKSMSSMVSDTSCTFPSGDGIFWKHWIQTKDGQCGSPLVSTRDGFIVGIHSASNFTNTNQYFTSVPKNFMELLTNQEAQQWVSGWRLNADSVLWGGHKVFMVKPEEPFQPVKEATQL [N178Q], for which the “area with substrate EFLYFQS” value was determined as 0.153, the “area with substrate EILYFQS” value came to 0.126, the “area with substrate ELLYFQS” value turned out to be 0.137 and the “area with substrate EPLYFQS” value turned out to be 0.168. Besides, the “area with substrate ERLYFQS” value was 0.131 and the “area with substrate EWLYFQS” value came to 0.117.
For the variant MGESLFHGPRDYNPISSSICHLTNESDGHTTSLYGIGFGPFIITNKHLFRRNNGTLVVQSLHGVFKVKDTTTLQQHLVDGRDMIIIRMPKDFPPFPQKLKFREPQREERICLVTTNFQTKSMSSMVSDTSCTFPSGDGIFWKHWIQTKDGQCGSPLVSTRDGFIVGIHSASNFTNTNNYFTSVPKNFMELLTNQEAQQWVSGWRLNADSVLWGGHKVFMVKPEEPFQPVKEATQL [K7H], the “area with substrate EFLYFQS” value was determined as 0.118, the “area with substrate EGLYFQS” value stood at 0.116, the “area with substrate EILYFQS” value was determined as 0.088 and the “area with substrate ELLYFQS” value amounted to 0.108. The “area with substrate EPLYFQS” value was determined as 0.111 and the “area with substrate ETLYFQS” value came out at 0.134.
MGESLFKGPRDYNPISSSICHLTNESDGHTTSLYGIGFGPFIITNKHLFRRNNGTLVVQSLHGVFKVKDTTTLQQHLVDGRDMIAIRMPKDFPPFPQKLKFREPQREERICLVTTNFQTKSMSSMVSDTSCTFPSGDGIFWKHWIQTKDGQCGSPLVSTRDGFIVGIHSASNFTNTNNYFTSVPKNFMELLTNQEAQQWVSGWRLNADSVLWGGHKVFMVKPEEPFQPVKEATQL [I85A]: the “area with substrate EFLYFQS” value came out at 0.0749, the “area with substrate EGLYFQS” value came out at 0.062, the “area with substrate ERLYFQS” value was 0.0624 and the “area with substrate ETLYFQS” value worked out at 0.062. Further, the “area with substrate EWLYFQS” value was determined as 0.0531.
